Assay results as given in PubChem BioAssay AID1508623 (National Center for Advancing Translational Sciences (NCATS), 2021).
The campaign covered roughly 48,000 compounds. About 450 (0.94%) were called active. The shares of active, inactive and inconclusive entries below differ from those in the screen. The call rests on the fitted dose curve; in most records, active means well fitted inhibition curve with a large enough effect; inconclusive means small, poorly fitted or top-dose-only effect; inactive means no such curve, though single readings can be large or run the other way. Where the call is inconclusive, the potency comes from a doubtful curve fit.

experiment: Primary qHTS for Identification of Small Molecule Inhibitors of Huntingtin Promoter Activity; conditions: HEK293 HTT promoter firefly luciferase reporter (activity 0% = vehicle and -100% = no light), 24 h; activity change, negative = inhibition: at 57.5 µM (top of the series); further: nearly all actives have a fitted effect of over 50% in size
Procedure, shortened: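 Firefly luciferase readout (Dual-Glo, 10 min RT) after 24 h, 37 °C compound exposure (final up to 57.5 uM) of HEK293 reporter cells cultured 24 h beforehand; PTC124 at 50 uM final as control inhibitor; activity scaled vehicle 0%, zero RLU -100%.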
Potency means the concentration at half of the fitted maximal effect; tags describe the fitted curve by direction and shape.

Compound | activity change, negative = inhibition | Potency
Cc1ccc(Cn2c(=O)c3cccnc3n(CC(=O)Nc3cc(Cl)ccc3C)c2=O)cc1 | inactive: -9.66% | –
CCOc1ccc(N(C)C(=O)c2oc(=O)c3ccccc3c2-c2ccccc2)cc1 | – | inconclusive: 35.5 µM [inhibitor, single point]
Cc1ccc(N(CC(=O)N2CCN(c3cc(C)ccc3C)CC2)S(=O)(=O)c2c(C)nn(C)c2C)cc1 | – | inconclusive: 35.5 µM [inhibitor, single point]
CCOC(=O)c1ccc(N2C(=O)c3n[nH]c(-c4ccco4)c3C2c2ccc(C(=O)OC)cc2)cc1 (stereo not drawn) | – | inconclusive: 28.2 µM [inhibitor, partial curve]
O=C(c1ccc2c(c1)N(Cc1ccc(Cl)cc1)C(=O)c1ccccc1S2(=O)=O)N1CCCC1 | – | inconclusive: 39.8 µM [inhibitor, single point]
CCCCOc1ccccc1C1CC(=O)Nc2ccc3ccccc3c21 (stereo not drawn) | – | inconclusive: 17.8 µM [inhibitor, single point]
CCOc1ccc(CNC(=O)c2oc3c(c2C)-c2nn(Cc4cccc(Cl)c4)cc2CC3)cc1 | – | inconclusive: 25.1 µM [inhibitor, single point]
CCCCN(CC)C(=O)CSc1nc2n[nH]c(C)c2c(=N)n1-c1ccc(CC)cc1 | – | inconclusive: 31.6 µM [inhibitor, partial curve, poor fit]
CCOc1ccc(-c2cccc(NS(=O)(=O)c3ccc(C)s3)c2)nn1 | – | inconclusive: 22.4 µM [inhibitor, single point]
COc1ccc(NC(=O)CSc2ncc3c(n2)-c2ccccc2N(Cc2ccc(C)cc2)S3(=O)=O)cc1Cl | – | inconclusive: 11.2 µM [inhibitor, partial curve]
CCOc1ccc(NS(=O)(=O)c2c(C)nc3sc(C)c(C)n3c2=O)cc1 | – | inconclusive: 22.4 µM [inhibitor, partial curve, poor fit]
CCCCOc1ccc(C(=O)Nc2ccc3c(c2)CCCN3C(=O)c2cccs2)cc1 | – | inconclusive: 2.82 µM [inhibitor, full curve]
CN1CCN(CCC(=O)N2c3ccccc3Sc3ccc(C(F)(F)F)cc32)CC1 | – | inconclusive: 28.2 µM [inhibitor, single point]
COc1cccc(NC(=O)c2c(C)nn(-c3cccc(C)c3)c2-n2cccc2)c1 | – | inconclusive: 17.8 µM [inhibitor, single point]
O=C(Cn1ccc2cc(S(=O)(=O)N3CCCCCC3)ccc21)NCc1ccccc1Cl | – | inconclusive: 14.1 µM [inhibitor, single point]
CCC1Sc2ccccc2N(CC(=O)NCc2ccc(C)cc2)C1=O (stereo not drawn) | inactive: 15.2% | –
Cc1noc2ncnc(N3CCN(c4cccc(C(F)(F)F)c4)CC3)c12 | – | inconclusive: 7.08 µM [inhibitor, partial curve]
Cc1cccn2c(=O)c3cc(C(=O)NCC(C)C)sc3nc12 | inactive: 18.2% | –
O=C(CSc1nc2c([nH]c3ccccc32)c(=O)n1-c1ccccc1)Nc1ccc2c(c1)OCO2 | – | inconclusive: 5.62 µM [inhibitor, partial curve, poor fit]
Nc1c(C(=O)Nc2ccccc2Br)sc2nc(-c3cccs3)ccc12 | – | inconclusive: 12.6 µM [inhibitor, partial curve]

Compound | activity change, negative = inhibition | Potency
Cc1ccc(Cc2nc3ccccc3nc2SCC(=O)N2CCC(C)CC2)cc1 | – | inconclusive: 39.8 µM [inhibitor, single point]
COc1cccc(C(=O)Nc2ccc3nc(SCC(=O)N(C)c4ccccc4)sc3c2)c1 | – | inconclusive: 35.5 µM [inhibitor, partial curve, poor fit]
Cc1ccc(CNC(=O)c2ccc(CSc3nc4ccncc4n3Cc3ccc(C)cc3)cc2)cc1 | – | inconclusive: 31.6 µM [inhibitor, single point]
Cc1cc(C)c(NC(=O)Cn2c(=O)oc3cc(S(=O)(=O)N4CCCCCC4)ccc32)c(C)c1 | – | active: 10 µM
CCCN(C(=O)c1cc(S(=O)(=O)N2CCc3ccccc32)cn1C)c1ccc(OCC)cc1 | – | inconclusive: 39.8 µM [inhibitor, single point]
Cc1ccccc1NC(=O)C(=O)NCC(c1ccc2c(c1)OCO2)N1CCN(c2ccccc2)CC1 (stereo not drawn) | – | inconclusive: 15.8 µM [inhibitor, partial curve, poor fit]
CCOc1ccc(C2C(C(=O)Nc3ccccc3)=C(C)Nc3nc(-c4ccccc4Cl)nn32)cc1OC (stereo not drawn) | – | inconclusive: 35.5 µM [inhibitor, partial curve, poor fit]
COc1ccc(CNC(=O)Cn2c(=O)oc3cc(S(=O)(=O)NCc4ccccc4)ccc32)cc1 | – | inconclusive: 11.2 µM [inhibitor, partial curve, poor fit]
NC1=N[C@H]2[C@H](CS[C@H]2CCCCC(=O)O)N1 | inactive: -8.77% [at 25.2 µM] | –
FC(F)(F)c1cccc(N2CCN(c3ncnc4c3nc3n4CCCC3)CC2)c1 | – | inconclusive: 1.78 µM [inhibitor, full curve, poor fit]
CCC(C)NC(=O)c1cc(Sc2cccc(Cl)c2)nc2ccccc12 (stereo not drawn) | – | inconclusive: 39.8 µM [inhibitor, single point]
O=C(Cn1nc(C(F)(F)F)c2c1CCCC2)Nc1cccc(Cl)c1 | – | inconclusive: 22.4 µM [inhibitor, partial curve, poor fit]
COc1ccc(NC(=O)c2nnn(CC(=O)Nc3ccc(C)c(C)c3)c2N)cc1OC | – | inconclusive: 31.6 µM [inhibitor, partial curve, poor fit]
Cc1ccccc1C(=O)Nc1sc2c(c1C(=O)N1CCC(C)CC1)CCC(C)C2 (stereo not drawn) | – | inconclusive: 22.4 µM [inhibitor, single point]
Cc1ccccc1CS(=O)(=O)Cc1ccc(C(=O)NCCc2ccc(Cl)cc2)o1 | – | inconclusive: 20 µM [inhibitor, single point]
CCOC(=O)N1CCC(NC(=O)c2cnn(-c3ccc(OC)cc3)c2C2CCN(C(=O)OC(C)(C)C)CC2)CC1 | inactive: 7.2% | –
Cc1ccccc1OCCn1cc(C(=O)c2ccco2)c2ccccc21 | – | inconclusive: 25.1 µM [inhibitor, single point]
COc1ccc(OC)c(C2CC(=O)c3c([nH]c(C(=O)OCc4ccc(C)cc4)c3C)C2)c1 (stereo not drawn) | – | inconclusive: 10 µM [inhibitor, partial curve, poor fit]
Clc1ccc(-c2noc3ncnc(NC4CCCCC4)c23)cc1 | – | inconclusive: 25.1 µM [inhibitor, single point]
CCOc1ccc(C(=O)/C=C/c2cn(CC(O)CN3CCc4ccccc43)c3ccccc23)cc1 (stereo not drawn) | – | inconclusive: 39.8 µM [inhibitor, single point]

Compound | activity change, negative = inhibition | Potency
Cc1ccc(-c2c(C(=O)N3CCN(c4ccc(F)cc4)CC3)oc(=O)c3ccccc23)cc1 | – | inconclusive: 39.8 µM [inhibitor, single point]
Cc1cc(C)cc(N2C(=O)N(Cc3cc(=O)n4ccccc4n3)c3ccccc3S2(=O)=O)c1 | – | inconclusive: 22.4 µM [inhibitor, partial curve, poor fit]
Cc1cccc2c1-c1sc(C(=O)NCCCN3CCN(c4ccccc4F)CC3)cc1CO2 | – | inconclusive: 28.2 µM [inhibitor, single point]
O=C(CCS(=O)(=O)c1nc(-c2ccc3c(c2)OCO3)cc(C(F)(F)F)n1)Nc1ccc(Br)cc1 | – | inconclusive: 28.2 µM [inhibitor, single point]
O=C(C=Cc1cccc(S(=O)(=O)Nc2ccccc2)c1)NO | inactive: 144% [at 116 µM] | –
O=C1CC(c2c(F)cccc2Cl)c2c(ccc3ccccc23)N1 (stereo not drawn) | – | inconclusive: 25.1 µM [inhibitor, partial curve, poor fit]
COc1ccc(C)cc1NC(=O)c1nnn(-c2c(C)cccc2C)c1C | – | inconclusive: 35.5 µM [inhibitor, partial curve]
Cc1ccc(-c2nc(CCNC(=O)C(=O)Nc3c(C)cccc3C)cs2)cc1 | – | inconclusive: 39.8 µM [inhibitor, single point]
CN(C)C1CCN(C(=O)c2ccc(NC(=O)Nc3nc(N4CCOCC4)nc(N4CCOCC4)n3)cc2)CC1 | – | inconclusive: 0.968 µM [inhibitor, full curve]
O=C(Cn1ccc2cc(S(=O)(=O)N3CCCCC3)ccc21)NCc1ccccc1Cl | – | inconclusive: 25.1 µM [inhibitor, single point]
COc1ccc(N2C(=O)CSC23C(=O)N(Cc2ccc(C)cc2)c2ccccc23)cc1Cl (stereo not drawn) | – | inconclusive: 39.8 µM [inhibitor, single point]
CCOC(=O)c1cc(-c2ccccc2)n(CCCC(=O)Nc2ccccc2C)c1C | – | inconclusive: 22.4 µM [inhibitor, partial curve]
Clc1cccc(C2=NC(c3cccs3)=Nc3ccc(Br)cc3N2)c1 | inactive: -13.1% | –
CCN(CC)CCOC(=O)c1ccc(Nc2c3c(nc4ccccc24)CCC3)cc1 | – | inconclusive: 28.2 µM [inhibitor, partial curve, poor fit]
CCOc1ccccc1NC(=O)Cn1c(=O)ccc2cc(S(=O)(=O)N3CCCC3)ccc21 | – | inconclusive: 39.8 µM [inhibitor, single point]
COc1cc(-c2nc3nc(C)cc(C)n3c2Nc2ccc(Cl)cc2)ccc1O | inactive: -22.3% | –
O=C(N[C@@H](c1ccccc1)[C@@H]1CCCCN1)c1cccc(C(F)(F)F)c1Cl | – | inconclusive: 30.6 µM [inhibitor, partial curve, poor fit]
CC(=O)c1ccc(N2CCN(S(=O)(=O)c3ccc4c(c3)C(C)(C)C(=O)N4)CC2)cc1 | – | inconclusive: 17.8 µM [inhibitor, single point]
